The source holds more than one record for some entries. The other results are left out here. An entry can have further records. Values that stand side by side read as repeated measurements on other runs, samples or individuals; one of them may be the mean.
Biological target: Pex5eTPR, truncated Pex5 with the extended TPR domain and a single Wxxx(F/Y) motif, wild type (Trypanosoma cruzi) (UniProt Q4DPQ9)
Assay: ITC; Pex14NTD in the syringe injected into Pex5eTPR in the cell, without PTS1 peptide; 20 mM sodium phosphate, 100 mM NaCl, pH 6.5, 25 °C; independent model; single titrations (replicates), each fitted by itself

N-terminal domain of Pex14 (Pex14NTD), wild type (domain or fragment)
Ka: 2.8e+07 1/M, 3.4e+07 1/M, 2.9e+07 1/M, 2.2e+07 1/M, 3.2e+07 1/M [columns of one line]
Kd: 36.1, 29.1, 34.2, 46, 30.9 nM [columns of one line]
stoichiometry N: 0.726, 0.623, 0.646, 0.653, 0.639 [columns of one line]

Reference: publication PMC12738837, “Structure of Trypanosoma peroxisomal import complex unveils conformational heterogeneity” (Nature Communications, 2025)
